At least one peptide structure holds a part that was inferred or is arguable (an end, a ring closure or a residue). Where a SMILES comes first, the peptide text is derived from it. [ ]: non-standard residue; d: D form.
How the values were obtained:
[1] = system: growth hormone (GH) release; assay: In vivo GH release in pentobarbital anesthetized rats (serum GH by RIA); parameters: species or system immature female Sprague-Dawley rats; details: for GH Released by Compound in Column A ng/mL + SEM: Table 3, sacrificed 10 min after injection; for GH Released: Table 4, control GH 181 ± 69
Description: Immature female Sprague-Dawley rats were obtained from the Charles River Laboratories (Wilmington, Mass.). After arrival they were housed at 25° C. with a 14:10 hour light:dark cycle. Water and Purina rat chow were available ad libitum. Pups were kept with their mothers until 21 days of age.
Twenty-six day old rats, six rats per treatment group, were anesthetized interperitoneally with 50 mg/Kg of pentobarbital 20 minutes prior to i. v. treatment with peptide. Normal saline with 0.1% gelatin was the vehicle for intravenous (i. v.) injections of the peptides. The anesthetized rats, weighing 55-65 grams, were injected i. v. with the quantity of growth hormone releasing compounds indicated in Tables 3 and 4. Injection was made as a 0.2 mL solution into the jugular vein.
All animals were sacrificed by guillotine 10 minutes after the final test injection (see Tables 3 and 4). Trunk blood for the determination of blood GH levels was collected following decapitation. After allowing the blood to clot, it was centrifuged and the serum was separated from the clot. Serum was kept frozen until the day of sampling for radioimmunasay (RIA) determination of growth hormone levels according to the following procedure, as developed by the National Institute of Arthritis, Diabetes and Digestive and Kidney Diseases (NIADDK).
Reagents are generally added to the RIA analysis tubes at a single sitting, at refrigerator temperature (about 4° C.) in the following sequence:
Reagent addition is generally carried out so that there is achieved a final RIA tube dilution of about 1:30,000 (antiserum to total liquid volume; vol:vol).
The mixed reagents are then typically incubated at room temperature (about 25° C.) for about 24 hours prior to addition of a second antibody (e.g., goat or rabbit anti-monkey gamma globulin serum) which binds to and causes precipitation of the complexed growth hormone antiserum. Precipitated contents of the RIA tubes are then analyzed for the number of counts in a specified period of time in a gamma scintillation counter. A standard curve is prepared by plotting number of radioactive counts versus growth hormone (GH) level. GH levels of unknowns are then determined by reference to the standard curve.
Serum GH was measured by RIA with reagents provided by the National Hormone and Pituitary Program.
Serum levels in Tables 3 and 4 are recorded in ng/mL in terms of the rat GH standard of 0.61 International Units/mg (IU/mg). Data is recorded as the mean +/- standard error of the mean (SEM). Statistical analysis was performed with Student's t-test. NS means the difference was not statistically significant. In Tables 3 and 4 the results shown are the average of studies with six rats.

[2] = system: growth hormone (GH) release; assay: In vivo synergistic effects in unanesthetized rats of combinations of GH-releasing compounds (serum GH by RIA); details: Table 5, dose 10 μg, control 12 ± 3
[3] = system: growth hormone (GH) release; details: previously shown for the comparison compound; cited from earlier work

C[C@H](NC(=O)[C@@H](Cc1c[nH]c2ccccc12)NC(=O)[C@@H](N)Cc1c[nH]cn1)C(=O)N[C@@H](Cc1c[nH]c2ccccc12)C(=O)N[C@H](Cc1ccccc1)C(=O)N[C@@H](CCCCN)C(N)=O [His--DTrp--Ala--Trp--DPhe--Lys--NH2] (H-H[dW]AW[dF]K-NH2)
GH Released by Compound in Column A ng/mL + SEM ([1]; total dose 1.0 μg i.v., control GH 138 ± 12): 1581 ± 228 ng/mL
GH Released by Compound in Column A ng/mL + SEM ([1]; total dose 1.0 μg i.v., control GH 151 ± 16): 1000 ± 276 ng/mL
GH Released by Compound in Column A ng/mL + SEM ([1]; total dose 3.0 μg i.v., control GH 138 ± 12): 2875 ± 393 ng/mL
GH Released by Compound in Column A ng/mL + SEM ([1]; total dose 3.0 μg i.v., control GH 151 ± 16): 2106 ± 216 ng/mL
GH Released by Compound in Column A ng/mL + SEM ([1]; total dose .1 μg i.v., control GH 138 ± 12): 226 ± 31 ng/mL
GH Released by Compound in Column A ng/mL + SEM ([1]; total dose .1 μg i.v., control GH 151 ± 16): 246 ± 39 ng/mL
GH Released by Compound in Column A ng/mL + SEM ([1]; total dose .3 μg i.v., control GH 138 ± 12): 613 ± 73 ng/mL
GH Released by Compound in Column A ng/mL + SEM ([1]; total dose .3 μg i.v., control GH 151 ± 16): 670 ± 75 ng/mL
GH Released ([1]; total dose 1.0 μg i.v.): 1531 ± 303 ng/mL
GH Released ([1]; total dose 3.0 μg i.v.): 2349 ± 267 ng/mL
GH Released ([1]; total dose .1 μg i.v.): 512 ± 43 ng/mL
GH Released ([1]; total dose .3 μg i.v.): 566 ± 114 ng/mL
GH Released (ng/mL) ±SEM [2]: 204 ± 50 ng/mL
synergistic response (previously shown) [3]: synergistic response
